Values joined by “and” are separate entries in the source; they are usually repeats but may differ in a detail not shown here. Equal entries are not always repeated. The campaign covered roughly 410,000 compounds. About 5,000 (1.2%) were called active. Inconclusive results, whose numbers are uncertain, are shown with a selection of clear calls. The call rests on the fitted dose curve; in most records, active means well fitted inhibition curve with a large enough effect; inconclusive means small, poorly fitted or top-dose-only effect; inactive means no such curve, though single readings can be large or run the other way. Potencies beside an inconclusive call are fits to weak or partial responses and may not hold up.
Test: qHTS for Inhibitors of TGF-b; further: nearly all actives have a fitted effect of over 65% in size
Details: HepG2 CAGA-GFP TGF-b/SMAD3 reporter, GFP fluorescence, 18 h, TGF-beta stimulated, 500 pg/mL final; series mostly up to 46.1 µM; activity, negative = inhibition: at the top concentration
Outline: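 HEPG2 CAGA-GFP, 1000 cells/well; 2 h settle, 37 C; cpd via pin tool; TGF-b 500 pg/mL final; 18 h, 37 C; GFP imaging ex488/em500-530; %Activity normalised to -TGF-b and +DMSO controls; CRC fit, curve class.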
On the % scale 0 is the no-effect control and ±100 the full control effect; potency means the concentration at half of the fitted maximal effect; tags describe the fitted curve by direction and shape.

| Structure (SMILES) | Potency | activity, negative = inhibition |
| --- | --- | --- |
| Cc1ccc(NC(=O)c2ccc(Nc3c([N+](=O)[O-])cc([N+](=O)[O-])cc3[N+](=O)[O-])cc2)cc1 | active: 12.6 µM | – |
| Cc1cc(NC(=S)N(Cc2ccc(Cl)cc2)Cc2ccc(C(=O)O)cc2)ccc1Cl | inconclusive: 35.5 µM [inhibitor, single point] | – |
| CCc1ccc(-n2nc(CO)c(C(=O)NCc3cccs3)n2)cc1 | inconclusive: 0.251 µM [inhibitor, full curve, poor fit] | – |
| O=C(c1ccc(Cl)c(Cl)c1)c1cc(-c2ccccn2)c(N2CCOCC2)s1 | inconclusive: 35.5 µM [inhibitor, single point] | – |
| Cc1ccc(C(=O)NCC(c2ccco2)S(=O)(=O)c2ccc(Cl)cc2)cc1C (stereo not given) | inconclusive: 3.55 µM [inhibitor, partial curve, poor fit] | – |
| CS(=O)(=O)N(CC(=O)N1CCCCCC1)c1cccc(Br)c1 | inconclusive: 0.112 µM [inhibitor, full curve, poor fit] | – |
| CC(C)c1ccc(NC(=O)c2cnc3sc(N4CCOCC4)nn3c2=O)cc1 | – | inactive: 0% |
| COc1ccc(OC)c(NC(=O)Cn2cnc3onc(-c4ccc(Cl)cc4)c3c2=O)c1 | – | inactive: -19.8% |
| COc1ccc(NC(=O)CN(C)S(=O)(=O)c2ccc3c(c2)c(=O)n(C)c(=O)n3C)cc1 | inconclusive: 5.01 µM [inhibitor, full curve, poor fit] | – |
| COc1ccc(-c2c(-c3ccc(O)cc3O)n[nH]c2C(F)(F)F)cc1 | inconclusive: 12.6 µM [inhibitor, single point] | – |
| O=C(NCC(c1ccco1)N1CCCC1)c1cccc(S(=O)(=O)N2CCOCC2)c1 (stereo not given) | – | inactive: -2.12% |
| Cc1ccc(-n2ncc3c(Nc4cccc(C(F)(F)F)c4)ncnc32)cc1C | inconclusive: 35.5 µM [inhibitor, single point] | – |
| COc1cccc(-c2nc(CS(=O)(=O)CC(=O)NCCc3ccc(Cl)cc3)c(C)o2)c1 | active: 11.2 µM | – |
| Cc1c(C(=O)Nc2ccc(S(=O)(=O)N(C)C3CCN(C)CC3)cc2)oc2ccccc12 | inconclusive: 35.5 µM [inhibitor, single point] | – |
| COc1cccc(NC(=O)C(NCCC(C)C)c2ccccc2)c1 (stereo not given) | active: 12.6 µM | – |
| CC1CCCCN1C(=O)CSc1c2c(nc3cc(Cl)ccc13)CCCC2 (stereo not given) | inconclusive: 11.2 µM [inhibitor, single point] | – |
| CCOC(=O)c1nnn(-c2ccccc2)c1C | – | inactive: 6.34% |
| COc1cccc(CN2c3ccc(Br)cc3C(=O)CS2(=O)=O)c1 | active: 10 µM and active: 7.94 µM | – |
| CCC1=NN(C(=O)c2ccc(Br)cc2)C(O)(c2ccc(C)cc2)C1 (stereo not given) | inconclusive: 20 µM [inhibitor, single point] | – |
| CCN1C(C)=C(C)S/C1=C1\SC(=S)N(N)C1=O | – | inactive: -14.1% |
| COc1ccc(OC)c(S(=O)(=O)Nc2cc(C)on2)c1 | inconclusive: 3.16 µM [inhibitor, single point] | – |
| COc1ccc(Nc2c(-c3ccc(C)cc3)nc3cnccn23)cc1 | inconclusive: 3.98 µM [inhibitor, partial curve, poor fit] | – |
| CCCCn1c(N)c(N(CC(C)C)C(=O)CC2CCCC2)c(=O)[nH]c1=O | inconclusive: 5.62 µM [inhibitor, single point] | – |

| Structure (SMILES) | Potency | activity, negative = inhibition |
| --- | --- | --- |
| COc1cccc(NC(=O)Cn2c(CCC(=O)O)ccc2-c2ccc(C)cc2)c1 | inconclusive: 22.4 µM [inhibitor, single point] | – |
| Brc1ccc(-c2nc(N/N=C/c3cccnc3)c3ccccc3n2)cc1 | – | inactive: -4.01% |
| CSc1ncccc1C(=O)OCC(=O)NCc1ccccc1 | – | inactive: -2.83% |
| COCCNC(=S)N(CCc1c(C)[nH]c2ccc(C)cc12)Cc1ccco1 | – | inactive: -10.5% |
| CN1CCN(C(CNS(=O)(=O)c2ccc([N+](=O)[O-])cc2)c2ccc(F)cc2)CC1 (stereo not given) | inconclusive: 5.62 µM [inhibitor, single point] | – |
| O=C(NNC(=O)c1ccccc1O)c1cc2ccccc2o1 | inconclusive: 22.4 µM [inhibitor, partial curve, poor fit] | – |
| O=C(CN1CCC(n2nnc3cc(C(F)(F)F)ccc32)CC1)Nc1ccc2c(c1)CCC2 | – | inactive: -3.05% |
| CC(=O)Nc1ccc(S(=O)(=O)NCCSCc2ccc(Cl)cc2Cl)cc1 | – | inactive: 0% |
| COc1ccc(Cc2noc(CN3CCCC(OCc4ccccn4)C3)n2)cc1OC (stereo not given) | inconclusive: 5.62 µM [inhibitor, single point] | – |
| Cc1ccc(CSCCC(=O)NCCc2ccc(Cl)cc2)cc1 | inconclusive: 12.6 µM [inhibitor, single point] | – |
| COc1cc(CNc2ccc3[nH]c(=O)[nH]c3c2)ccc1OCc1ccccc1 | inconclusive: 2.24 µM [inhibitor, full curve] | – |
| CC(C)(C)c1ccc(S(=O)(=O)Nc2cccc(C3OCCCO3)c2)cc1 | – | inactive: 0% |
| Cc1nn(-c2ccccc2)c(C)c1C(=O)NNC(=O)C(F)(F)F | – | inactive: 1.75% |
| COC(=O)c1ccc(N2CCc3ccccc32)c([N+](=O)[O-])c1 | – | inactive: -3.32% |
| COc1ccc(-c2nnc(Sc3nc4ccccc4o3)c3ccccc23)cc1 | active: 12.6 µM | – |
| O=C1C=C(c2ccc(Cl)cc2)C(=O)N1Nc1ccccc1 | inconclusive: 35.5 µM [inhibitor, single point] | – |
| COc1cc(C)nc(NS(=O)(=O)c2ccc(C)cc2)n1 | inconclusive: 0.112 µM [inhibitor, full curve, poor fit] | – |
| CSCCC(NS(=O)(=O)c1cccc(C(F)(F)F)c1)C(=O)N(C)CCOc1ccc(Cl)cc1 (stereo not given) | inconclusive: 35.5 µM [inhibitor, single point] | – |
| COc1ccc(C2c3[nH]c4ccccc4c3CCN2Cc2ccoc2)c(F)c1 (stereo not given) | inconclusive: 35.5 µM [inhibitor, single point] | – |
| O=C(O)C1CC=CCC1C(=O)Nc1ccc(Oc2ccc(Cl)cc2)cc1 (stereo not given) | – | inactive: -2.52% |
| CCn1c(CNC(=O)COc2ccc(C(C)C)cc2)nnc1SCC(=O)Nc1cc(F)ccc1C | inconclusive: 11.2 µM [inhibitor, partial curve, poor fit] | – |
| O=Cc1cn(CC(=O)Nc2ccccc2)c2ccccc12 | inconclusive: 5.01 µM [inhibitor, partial curve, poor fit] | – |

Reference: PubChem BioAssay AID588855 (National Center for Advancing Translational Sciences (NCATS), 2011)
